# Test results published in the supplement of paper PMC11417369.
# ± gives the standard deviation of the averaged measurements. The list shows a part of the results.
# System: PfAP2-LT AP2 domain (GST-tagged)
# Assay: gcPBM binding intensity (ln(normalized median fluorescence intensity)); higher = stronger DNA binding
# Method in brief: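 Binding intensity is the highest Masliner-normalised natural-log median intensity over replicate spots in either probe orientation. To obtain it, GST-tagged P. falciparum DNA-binding domains made in E. coli were incubated for 1 h on an Agilent 4 × 180k array of primer-extended double-stranded 36-bp intergenic genomic probes plus negative controls. Detection used Alexa488 anti-GST antibody with scanning at 488 nm.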
row,Sequence,gcPBM binding intensity (ln)
1,TTGTGTTAACTACCATGTACTTATACATCATAGGAA [XGTACX_site6627],8.57 ± 0.48
2,AATGTATATAGAAACATGCACACGTGGTTGTATATA [CACACA_site3278],9.16 ± 0.42
3,TATTGCCCTGGACACACACACATATATATATATATA [CACACA_site5389],10.2 ± 0.064
4,ATAATATAAACATACACACACACATCTATATTTATA [CACACA_site7381],9.92 ± 0.071
5,TTATGTTATATAAAAAGTACAAATTTTTTTTAATTA [XGTACX_site3435],8.22 ± 0.54
6,ATTATTATTATATATGCATGTAAAATATTAAAGTAC [TGCATGCA_site914],8.68 ± 0.38
7,ATACATATAAAAAAGTGTACATATTAAAATAAGTAT [XGTACX_site1310],9.1 ± 0.4
8,AATGCAAATAATAAAACACACAAAAAAAAGAAAAAA [CACACA_site1184],9.1 ± 0.56
9,ATATCCGTTCAAAGATGTACATATATATTCTATAGA [XGTACX_site5354],8.71 ± 0.47
10,TCATACAAACCTATTTGTACATAAGTATAATATATA [XGTACX_site4284],8.66 ± 0.38
11,AAGTATTACAACCACACACACACCTATATATCATAG [CACACA_site7878],9.99 ± 0.25
12,ATCTTTTACGAATACACACACATAAAGAAAAAAAAA [CACACA_site1331],9.2 ± 0.37
13,AAGGATATGAAAAGTAGTACAAAATTTAGAACACCC [XGTACX_site4758],9.12 ± 0.46
14,ATTATATTCTCCTTCACACACAAAAATATTTCATCA [CACACA_site5326],9.13 ± 0.45
15,TTACGATTAAATATAACACACAACATATTTTTAATA [CACACA_site2967],8.75 ± 0.47
16,CACAAAAATTTATACACACACATATATAATATATAT [CACACA_site152],9.33 ± 0.4
17,ATTTCAAATTAATTTACACACTTCATACTAAAAGAC [CACACA_site3176],8.71 ± 0.4
18,TTGATATATAATAATACACACTTACATAATTAATTA [CACACA_site4320],8.7 ± 0.42
19,TATATTATTAAGATATGTACATAATTATAAATTTAA [XGTACX_site6848],8.45 ± 0.45

row,Sequence,gcPBM binding intensity (ln)
1,ATGAAAAAATTTATATGTACTTAAAATATAATCATA [XGTACX_site1228],8.41 ± 0.36
2,ATAAATAAAGGACACACACACACACTAGAAAAAAAA [CACACA_site5450],10.2 ± 0.3
3,AAAATAAAATTAGTTGCATGCAACTTAAACAGAAAT [TGCATGCA_site860],9.05 ± 0.46
4,TTGTGCTTGATATCACGGACAAGCTCATATTATATA [XGTACX_site4553],8.68 ± 0.35
5,AAAAATTTTATATTCACACACATATATATATATATA [CACACA_site624],9.63 ± 0.13
6,TATTTTTATATTTTTGCACACATTCTTTACTCTTCA [CACACA_site2211],9.38 ± 0.39
7,GATATATATTAATATACACACACACCGATATATATA [CACACA_site8462],9.72 ± 0.12
8,TTTATATTTTATAAATTATTCATAAATATATTTGTA [TGCATGCA_negctrl_site175],8.29 ± 0.47
9,AATAAATAGATAAGCACACAAGCATATAGACATATA [CACACA_site222],9.24 ± 0.47
10,AAATTCCACCAACACACACACATATAAATAAATAAA [CACACA_site1233],9.86 ± 0.42
11,TTTTGAAACATATGATGTACACGAACATTTAAAAAA [XGTACX_site474],8.51 ± 0.4
12,TATAAATAAAAACACACACACACATATATATATATA [CACACA_site2268],10.2
13,TATAAATATAAATATACACACATATTTATATTTATA [CACACA_site7053],8.72 ± 0.33
14,CTCTATAAATGCTGCACACACATTTAATTATTTAAG [CACACA_site2582],9.14 ± 0.33
15,TTTTACAATGAAAGGTGTACAAGTAACAGTAGAACA [XGTACX_site1528],9.02 ± 0.5
16,AAATGAAATACATCCTGTACATAGTAATGCTAACAA [XGTACX_site6600],8.89 ± 0.42
17,ATAAAAGATATTTTTACACACTTTTGATGAGATCGT [CACACA_site3053],8.91 ± 0.38
18,ATACCAACATATTATACACACCTTTATATTTTTTTT [CACACA_site5217],9.06 ± 0.45
19,TTCAAGGTTTTAGATTGTACAATTATTATATATATA [XGTACX_site8982],8.71 ± 0.46

row,Sequence,gcPBM binding intensity (ln)
1,GGTTGTATAAGTTTTTGTACATATATATATATATAT [XGTACX_site7487],9.66 ± 0.38
2,TGAGCATAAAAAGGGTGTACTTAAATATATTATATA [XGTACX_site7556],8.72 ± 0.57
3,GAATATAATCTGTATTGTACGAAAGTTGAACACTTG [XGTACX_site8895],8.74 ± 0.45
4,TTGTATTATTATGTTGCACACATTTTATATAAAATA [CACACA_site3641],9.05 ± 0.38
5,TTTAGATAATTCATTACACACATGTATTTATATATA [CACACA_site5847],8.96 ± 0.43
6,TATATATATATATATATATATACAAATATATATTAT [CACACA_negctrl_site1729],9.4 ± 0.22
7,TTTTTGTAAAAACACACACACAAACAGAAAAAATAA [CACACA_site2076],9.4 ± 0.25
8,ATGGTAGTTCTCCATGCATGCCTTTTTATTATCATA [TGCATGCA_site681],9.17 ± 0.45
9,TGTGCCCAAAATTATGCACACACCTAAAATTAATTT [CACACA_site2914],9.07 ± 0.33
10,TTTTATCTTTTTTTATTTTAATGTATTATTTTTATG [XGTACX_negctrl_site24],8.62 ± 0.66
11,ATATGTGTATGTGCGTGTACATATCTATACAGTTGT [XGTACX_site6540],9.24 ± 0.35
12,ACTATTTAGTCTGGTGGTACTTTATATATAATTTCT [XGTACX_site5618],9.12 ± 0.42
13,ATTATCATAATGTTCACACATATGGTATATATAGAT [CACACA_site6113],8.8 ± 0.31
14,TAATAAGAAATAACAGGTACACATATATAAATATTA [XGTACX_site2976],8.96 ± 0.42
15,ATATGTAGATGATATTATTACTTTTCAAAAATTCAA [CACACA_negctrl_site933],8.55 ± 0.49
16,AAGTATAAAAAAAGGCGTACAAAAAAAAAAAAAAAA [XGTACX_site7309],8.59 ± 0.61
17,TTTTTCATTAATACAAGTACAAAATGATGTTGACAT [XGTACX_site1475],8.5 ± 0.42
18,ACTTTACAATATATATGTACATATTAATAAACATAT [XGTACX_site3689],8.94 ± 0.47
